Experimental data from the supplement of paper PMC8728848.
The other results are listed elsewhere or left out.

Experiments:
Assay in all cases: glycan array binding signal (z-score within array); higher = stronger binding
Conditions in all cases: glycan notation: IUPAC condensed, linker removed
[1] = biological target: GlcNAc(b1-4)GlcNAc(b1-4)GlcNAc(b1-4)GlcNAc(b1-4)GlcNAc(b1-4)GlcNAc
Procedure, shortened: (§1)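 Glycan array data were curated from 3228 arrays in the Consortium for Functional Glycomics database and kept only where the protein sequence was available. Glycan names were converted to IUPAC-condensed notation, and columns mapping to the same glycan were averaged. The binding signal is a within-array Z-score, averaged across arrays of the same protein sequence at different concentrations or buffers and across linkers. Negative Z-scores can be read as non-binding.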

[2] = biological target: GlcNAc(b1-4)[GlcNAc(b1-6)]GalNAc
Procedure, shortened: as §1

[3] = biological target: GlcNAc(b1-6)Gal(b1-4)GlcNAc
Procedure, shortened: as §1

[4] = biological target: GlcNAc(b1-6)GalNAc
Procedure, shortened: as §1

[5] = biological target: GlcNAc6S(b1-3)Gal(b1-4)GlcNAc
Procedure, shortened: as §1

[6] = biological target: Kdn(a2-3)Gal(b1-3)GalNAc
Procedure, shortened: as §1

[7] = biological target: Kdn(a2-3)Gal(b1-3)GlcNAc
Procedure, shortened: as §1

[8] = biological target: Kdn(a2-3)Gal(b1-4)Glc
Procedure, shortened: as §1

[9] = biological target: Kdn(a2-3)Gal(b1-4)GlcNAc
Procedure, shortened: as §1

[10] = biological target: Kdn(a2-3)Gal(b1-4)[Fuc(a1-3)]GlcNAc
Procedure, shortened: as §1

[11] = biological target: Kdn(a2-6)Gal(b1-4)GlcNAc
Procedure, shortened: as §1

[12] = biological target: Man(a1-2)Man(a1-2)Man(a1-3)Man
Procedure, shortened: as §1

[13] = biological target: Man(a1-2)Man(a1-2)Man(a1-6)[Man(a1-3)]Man
Procedure, shortened: as §1

[14] = biological target: Man(a1-2)Man(a1-3)Man
Procedure, shortened: as §1

[15] = biological target: Man(a1-2)Man(a1-3)[Man(a1-2)Man(a1-6)]Man
Procedure, shortened: as §1

[16] = biological target: Man(a1-2)Man(a1-3)[Man(a1-2)Man(a1-6)]Man(a1-6)[Man(a1-2)Man(a1-2)Man(a1-3)]Man
Procedure, shortened: as §1

[17] = biological target: Man(a1-2)Man(a1-3)[Man(a1-2)Man(a1-6)]Man(a1-6)[Man(a1-2)Man(a1-2)Man(a1-3)]Man(b1-4)GlcNAc(b1-4)GlcNAc
Procedure, shortened: as §1

[18] = biological target: Man(a1-2)Man(a1-3)[Man(a1-6)]Man(a1-6)[Man(a1-2)Man(a1-3)]Man(b1-4)GlcNAc(b1-4)GlcNAc
Procedure, shortened: as §1

[19] = biological target: Man(a1-2)Man(a1-6)[Man(a1-3)]Man(a1-6)[Man(a1-2)Man(a1-2)Man(a1-3)]Man
Procedure, shortened: as §1

[20] = biological target: Man(a1-2)Man(a1-6)[Man(a1-3)]Man(a1-6)[Man(a1-2)Man(a1-2)Man(a1-3)]Man(b1-4)GlcNAc(b1-4)GlcNAc
Procedure, shortened: as §1

[21] = biological target: Man(a1-3)[Man(a1-6)]Man
Procedure, shortened: as §1

[22] = biological target: Man(a1-3)[Man(a1-6)]Man(a1-6)[Man(a1-2)Man(a1-3)]Man(b1-4)GlcNAc(b1-4)GlcNAc
Procedure, shortened: as §1

[23] = biological target: Man(a1-3)[Man(a1-6)]Man(a1-6)[Man(a1-3)]Man
Procedure, shortened: as §1

[24] = biological target: Man(a1-3)[Man(a1-6)]Man(a1-6)[Man(a1-3)]Man(b1-4)GlcNAc(b1-4)GlcNAc
Procedure, shortened: as §1

[25] = biological target: Man(a1-3)[Man(a1-6)]Man(b1-4)GlcNAc(b1-4)GlcNAc
Procedure, shortened: as §1

[26] = biological target: Man(a1-3)[Man(a1-6)]Man(b1-4)GlcNAc(b1-4)[Fuc(a1-6)]GlcNAc
Procedure, shortened: as §1

[27] = biological target: Man(a1-6)Man
Procedure, shortened: as §1

[28] = biological target: Man(b1-4)GlcNAc
Procedure, shortened: as §1

[29] = biological target: MurNAc(b1-4)GlcNAc
Procedure, shortened: as §1

[30] = biological target: Neu5Ac(a2-3)Gal
Procedure, shortened: as §1

[31] = biological target: Neu5Ac(a2-3)Gal(b1-3)GalNAc
Procedure, shortened: as §1

[32] = biological target: Neu5Ac(a2-3)Gal(b1-3)GalNAc(b1-3)Gal(a1-4)Gal(b1-4)Glc
Procedure, shortened: as §1

[33] = biological target: Neu5Ac(a2-3)Gal(b1-3)GalNAc(b1-4)Gal(b1-4)Glc
Procedure, shortened: as §1

[34] = biological target: Neu5Ac(a2-3)Gal(b1-3)GalNAc(b1-4)[Neu5Ac(a2-3)]Gal(b1-4)Glc
Procedure, shortened: as §1

[35] = biological target: Neu5Ac(a2-3)Gal(b1-3)GalNAc(b1-4)[Neu5Ac(a2-8)Neu5Ac(a2-3)]Gal(b1-4)Glc
Procedure, shortened: as §1

[36] = biological target: Neu5Ac(a2-3)Gal(b1-3)GalNAc6S
Procedure, shortened: as §1

[37] = biological target: Neu5Ac(a2-3)Gal(b1-3)GlcNAc
Procedure, shortened: as §1

B1: Nc3LysM (protein)
chain: QFTVPPDTTAEPNTIKTCTWWHVAGSGDSCTSIASTYGITSEQFARWDMETTDSPKNPSVATACKLTVGNSYCIENNFGQDDPPTPSISSSTLIGTATTSTTASTTTGNGISTPTPIQEGMETATTTTSSGNGITTPTPTQAGMETVGNCDRFHLVKSGDQCGTIASTYGITLANFYSWNPAVGTSCQSLWLDTYVCVRTIGFVPPKTTTTTTKKPTSTTSAGGVATPTPTQPGMETVSGCKKFHKGRGNVSTVASGDQCGTIATRYGISLANFYSWNPAVGSSCQTLWLDYYVCVGR
- glycan array binding signal (z-score) [1]: 16.7
- glycan array binding signal (z-score) [2]: -0.069
- glycan array binding signal (z-score) [3]: 0.007
- glycan array binding signal (z-score) [4]: -0.113
- glycan array binding signal (z-score) [5]: -0.118
- glycan array binding signal (z-score) [6]: -0.184
- glycan array binding signal (z-score) [7]: -0.059
- glycan array binding signal (z-score) [8]: -0.043
- glycan array binding signal (z-score) [9]: 0.027
- glycan array binding signal (z-score) [10]: 0.038
- glycan array binding signal (z-score) [11]: -0.076
- glycan array binding signal (z-score) [12]: 0.193
- glycan array binding signal (z-score) [13]: -0.063
- glycan array binding signal (z-score) [14]: 0.234
- glycan array binding signal (z-score) [15]: -0.221
- glycan array binding signal (z-score) [16]: -0.142
- glycan array binding signal (z-score) [17]: -0.293
- glycan array binding signal (z-score) [18]: -0.168
- glycan array binding signal (z-score) [19]: -0.084
- glycan array binding signal (z-score) [20]: -0.189
- glycan array binding signal (z-score) [21]: -0.103
- glycan array binding signal (z-score) [22]: -0.231
- glycan array binding signal (z-score) [23]: -0.105
- glycan array binding signal (z-score) [24]: -0.033
- glycan array binding signal (z-score) [25]: -0.151
- glycan array binding signal (z-score) [26]: 0.04
- glycan array binding signal (z-score) [27]: -0.101
- glycan array binding signal (z-score) [28]: -0.17
- glycan array binding signal (z-score) [29]: -0.102
- glycan array binding signal (z-score) [30]: -0.255
- glycan array binding signal (z-score) [31]: 0.041
- glycan array binding signal (z-score) [32]: -0.181
- glycan array binding signal (z-score) [33]: 0.03
- glycan array binding signal (z-score) [34]: -0.117
- glycan array binding signal (z-score) [35]: -0.085
- glycan array binding signal (z-score) [36]: -0.078
- glycan array binding signal (z-score) [37]: 0.132
